According to PubChem BioAssay AID588855 (National Center for Advancing Translational Sciences (NCATS), 2011):
In all, about 410,000 compounds went through this assay and about 5,000 (1.2%) were called active. Inconclusive results, whose numbers are uncertain, are shown with a selection of clear calls. Calls follow the shape of the dose curve; as a rule, active = well fitted inhibition curve with a large enough effect; inconclusive = small, poorly fitted or top-dose-only effect; inactive = no such curve, though single readings can be large or run the other way. Potencies of inconclusive entries are doubtful fits and often do not repeat.

Test: qHTS for Inhibitors of TGF-b; also: nearly all actives have a fitted effect of over 65% in size
Details: HepG2 CAGA-GFP TGF-b/SMAD3 reporter, GFP fluorescence, 18 h, TGF-beta stimulated, 500 pg/mL final; series mostly up to 46.1 µM; activity, negative = inhibition: at the top concentration
How it was run: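 Using HEPG2 CAGA-GFP reporter cells at 1000 cells/well, we pinned test compounds, stimulated with recombinant TGF-beta (500 pg/mL final) and measured total well GFP after 18 h.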
% is scaled to controls: 0 for no effect and ±100 for the full control effect; potency is read from the fitted curve at half-maximal effect; tags tell the direction and shape of the fitted curve.

Row | Structure (SMILES) | activity, negative = inhibition | Potency
1 | CC(Sc1nccn1C)C(=O)c1c(N)n(C)c(=O)n(C)c1=O (configuration not stated) | inactive: -18.3% | –
2 | CCOc1ccc(C(=O)CCN2CCOCC2)cc1 | – | inconclusive: 25.1 µM [inhibitor, single point]
3 | O=C(/C=C/c1ccc(Br)cc1)NC(=O)c1ccccc1O | – | inconclusive: 25.1 µM [inhibitor, single point]
4 | O=C(Nc1ccc(F)cc1Cl)C1CCN(c2ncnc3c2nc2n3CCCCC2)CC1 | – | inconclusive: 14.1 µM [inhibitor, partial curve, poor fit]
5 | CN(C1CCCCC1)S(=O)(=O)c1ccc2c(c1)c(=O)c(C(=O)NCc1ccccc1Cl)cn2C | inactive: -11% | –
6 | COc1ccc2nc3ccccc3nc2c1NC(=O)c1ccc(Br)cc1 | – | inconclusive: 6.31 µM [inhibitor, single point]
7 | CC1(C(=O)NCc2cccs2)Cc2c(-c3cccc(C(F)(F)F)c3)ccnc2O1 (configuration not stated) | – | inconclusive: 31.6 µM [inhibitor, single point]
8 | COc1ccc(OCc2ccc(-c3nc(C#N)c(NCc4ccccc4)o3)o2)cc1 | – | inconclusive: 11.2 µM [inhibitor, single point]
9 | Cc1ccc(-n2nc(CC#N)c(C#N)c2N)cc1Cl | inactive: -30.5% | –
10 | CCNC(=O)N(C)C[C@H]1N[C@@](CC)(C(=O)OC)[C@H]2C(=O)N(Cc3ccccc3)C(=O)[C@@H]12 | – | inconclusive: 35.5 µM [inhibitor, single point]
11 | C[C@@H]1C(c2cccc(Cl)c2)=NN(c2ccc(Br)cc2)[C@H]1C(=O)N1CCOC1=O | – | active: 10 µM
12 | Cc1ccc2c(=O)n3c(nc2c1)C(Cc1ccc(O)cc1)NC(=O)c1cc2ccccc2cc1-3 (configuration not stated) | – | inconclusive: 25.1 µM [inhibitor, single point]
13 | CCc1ccccc1NS(=O)(=O)c1ccc2oc(=O)c3ncn(C)c3c2c1 | inactive: -21.1% | –
14 | O=[N+]([O-])c1ccc(CSc2ccc(S(=O)(=O)N3CCCCC3)cn2)cc1 | – | inconclusive: 5.62 µM [inhibitor, full curve]
15 | CCc1nc2ccc(C(=O)NC(C)(C)C)cn2c1N(CC)Cc1cccc(Br)c1 | – | inconclusive: 35.5 µM [inhibitor, single point]
16 | CCOc1cc(CN2CCN(C(=O)c3cccc4ccccc34)CC2)ccc1OC | – | inconclusive: 12.6 µM [inhibitor, partial curve, poor fit]
17 | COCCOC(=O)c1c(C)oc2c1cc(NS(=O)(=O)c1ccc(Cl)c(C)c1)c1ccccc12 | – | inconclusive: 35.5 µM [inhibitor, single point]
18 | CC/C(=N/NC(=O)c1ccc2c(c1)OCO2)c1ccccc1O | – | active: 2.51 µM
19 | Cc1c(-c2cccc(NC(=O)c3ccc(F)c(F)c3)c2)nc2ncccn12 | – | inconclusive: 22.4 µM [inhibitor, single point]
20 | Cc1cc(NC(=O)CN2C(=O)NC(C)(CC(C)C)C2=O)no1 (configuration not stated) | inactive: 1.06% | –
21 | CC[C@]1(O)CC2CN(CCc3c([nH]c4ccccc34)[C@@](C(=O)OC)(c3cc4c(cc3OC)N(C)[C@H]3[C@@](O)(C(=O)OC)[C@H](OC(C)=O)[C@]5(CC)C=CCN6CC[C@]43[C@@H]65)C2)C1 (some centres not stated) | – | inconclusive: 11.2 µM [inhibitor, partial curve, poor fit]
22 | COc1cc(OC)cc(C(=O)Nc2ccc(N3CCN(C(=O)c4cccs4)CC3)cc2)c1 | – | inconclusive: 35.5 µM [inhibitor, single point]
23 | CC(C)(C)OC(=O)[C@H](CCCCN)NC(=O)c1[nH]cnc1C(=O)N[C@@H](Cc1ccccc1)C(=O)OCc1ccccc1 | – | inconclusive: 35.5 µM [inhibitor, single point]

Row | Structure (SMILES) | activity, negative = inhibition | Potency
24 | CCOc1ccc(-c2cc3nc(C4CCN(C(=O)OC(C)(C)C)CC4)c(C(=O)Nc4ccc(C)c(F)c4)cn3n2)cc1 | – | inconclusive: 20 µM [inhibitor, single point]
25 | CCn1cc(C(=O)N2CCN(c3cc(Cl)ccc3C)CC2)c(=O)c2cc(S(=O)(=O)N3CCOCC3)ccc21 | – | inconclusive: 10 µM [inhibitor, partial curve]
26 | CCC(=O)N1CCc2cc(Br)cc(S(=O)(=O)N3CCC(C(=O)N(CC)CC)CC3)c21 | inactive: 1.08% | –
27 | Cc1ccc(C)n1-n1cnc2sc(-c3ccccc3)cc2c1=O | – | inconclusive: 35.5 µM [inhibitor, single point]
28 | CCCn1cnnc1CNC(=O)[C@H]1O[C@@H](n2ccc(=O)[nH]c2=O)[C@H](O)[C@@H]1O | inactive: -17% | –
29 | S=C(NC1CCCCC1)N(CCc1ccccc1)CCc1ccccc1 | inactive: -21% | –
30 | Cc1ccc2nc(-c3cccc(-c4cccc(Cl)c4)c3)c(NCc3ccccc3)n2c1 | – | inconclusive: 11.2 µM [inhibitor, partial curve, poor fit]
31 | Cc1ccc(C2=NN(C3=NN=C(N)Cc4ncnn43)C(O)(C(F)(F)F)C2)cc1 (configuration not stated) | inactive: -7.49% | –
32 | CCOC(=O)CC1=C(C(=O)OCC)C(c2cccnc2)C(C#N)=C(N)O1 (configuration not stated) | inactive: 1.89% | –
33 | CN(C)/[N+]([O-])=N/Oc1ccc([N+](=O)[O-])cc1[N+](=O)[O-] | – | inconclusive: 20 µM [inhibitor, single point]
34 | COc1ccc(Nc2nc3c(S(=O)(=O)c4ccc(Br)cc4)nnn3c3ccsc23)c(OC)c1 | inactive: 18.3% | –
35 | COc1cccc(CCNC(=O)CCCC(=O)c2ccccc2)c1 | – | inconclusive: 14.1 µM [inhibitor, single point]
36 | C[C@@]12CCC=C[C@H]1[C@H](c1ccc3ccccc3c1Br)N(Cc1ccccc1)C2=O | – | inconclusive: 20 µM [inhibitor, single point]
37 | CCCC(=O)Oc1ccccc1C1SCc2cc(C)c(C)cc2CS1 | inactive: -3.03% | –
38 | Cc1ccc(OCC(=O)Nc2ccc3c(c2)nc2n3CCOC2)cc1 | – | inconclusive: 3.98 µM [inhibitor, single point]
39 | COc1ccc(C[C@H]2c3cc(O)c(OC)cc3CC[N+]2(C)[O-])cc1O (some centres not stated) | – | inconclusive: 1.12 µM [inhibitor, full curve, poor fit]
40 | CCCCCC(=O)N1CC2(CC)CN(C(=O)CCCCC)CC(CC)(C1)C2=O | inactive: -21.5% | –
41 | NC(=S)N=Nc1c(O)n(Cc2ccc(Br)cc2)c2ccccc12 | – | inconclusive: 12.6 µM [inhibitor, partial curve, poor fit]
42 | Cc1ccccc1NC(=O)c1c(NC(=O)c2ccncc2)sc2c1CCC(C(C)(C)C)C2 (configuration not stated) | inactive: -13.1% | –
43 | COc1ccc(N2N=NN(C(C)C)C2=C(Cl)c2nnnn2-c2ccc(OC)cc2)cc1 | – | inconclusive: 22.4 µM [inhibitor, single point]
44 | Cc1ccsc1C(=O)Nc1nccs1 | inactive: -18.8% | –
45 | O=C(NCCC1CCCCN1S(=O)(=O)c1ccc(Cl)cc1)C(=O)NCc1ccncc1 (configuration not stated) | – | inconclusive: 12.6 µM [inhibitor, single point]
46 | COc1cccc(CNC(=O)c2ccc3c(c2)N(C)C(=O)C2CCCCN32)c1 (configuration not stated) | inactive: 29.6% | –

Row | Structure (SMILES) | activity, negative = inhibition | Potency
47 | O=C(N/N=C1\CC2CC=CC12)c1ccc(COc2ccccc2)cc1 (configuration not stated) | inactive: 4.15% | –
48 | O=C1C=C(c2cccc(Cl)c2O)C[C@@H](c2ccc(F)cc2)C1 | – | inconclusive: 25.1 µM [inhibitor, single point]
49 | COc1ccc(C2C=C(C)Nc3nc4ccccc4n32)cc1 (configuration not stated) | inactive: -14.8% | –
50 | Cc1cccc(NS(=O)(=O)c2ccc(C(=O)NCC(c3ccccc3)N(C)C)cc2)c1C (configuration not stated) | inactive: 0% | –
51 | COc1ccccc1-c1csc(Nc2ccc(Oc3ccccc3)cc2)n1 | – | inconclusive: 35.5 µM [inhibitor, single point]
52 | CN(C)C(=S)SCCn1c(N)nc(N(C)C)nc1=O | inactive: 14.2% | –
53 | O=C(OCc1cn([C@H]2CN(C(=O)C3CCCCC3)[C@@H](c3ccccc3)C[C@@H]2O)nn1)c1ccccc1 | inactive: 8.15% | –
54 | COc1cccc(CN2CCC(n3nccc3NC(=O)CCCc3ccccc3)CC2)c1 | – | inconclusive: 7.08 µM [inhibitor, partial curve]
55 | CC1CCN(C(C(=O)Nc2ccc(C(C)C)cc2)c2ccc3c(c2)OCO3)CC1 (configuration not stated) | – | inconclusive: 25.1 µM [inhibitor, single point]
56 | CC1(C)CC(CCNS(=O)(=O)c2ccccc2)(c2ccccc2)CCO1 (configuration not stated) | inactive: -24.1% | –
57 | COc1ccccc1N1CCN(Cc2nc(-c3ccc(F)cc3)oc2C)CC1 | – | inconclusive: 7.94 µM [inhibitor, partial curve, poor fit]
58 | O=C(c1ccc(Br)s1)N1CCN(S(=O)(=O)c2ccccc2)CC1 | – | inconclusive: 7.94 µM [inhibitor, partial curve, poor fit]
59 | CCOC(=O)c1nnc(-c2ccccc2)nc1Oc1ccc(Cl)cc1 | – | inconclusive: 11.2 µM [inhibitor, single point]
60 | Cc1ccc(-c2csc(NC(=O)c3c(C)noc3C)n2)s1 | – | inconclusive: 3.98 µM [inhibitor, full curve, poor fit]
61 | CC1CCN(S(=O)(=O)c2ccc(C(=O)Nc3nc4ccc(F)cc4s3)cc2)CC1 | inactive: 2.83% | –
62 | Cc1ccc(NC(=O)Nc2nc3ccccc3s2)cc1NC(=O)Nc1nc2ccccc2s1 | inactive: 3.35% | –
63 | Cc1onc(-c2c(F)cccc2Cl)c1C(=O)OCC(=O)NC(N)=O | inactive: 0.228% | –
64 | O=C1NC(CCc2ccccc2)C(=O)N1CCOc1cccc(Br)c1 (configuration not stated) | – | inconclusive: 22.4 µM [inhibitor, single point]
65 | CC1(C(=O)Nc2ccc3[nH]ncc3c2)CCN1C(=O)C/C=C/c1ccccc1 (configuration not stated) | inactive: -18.7% | –
66 | Cc1cccc(C)c1NC(=O)Cn1cnc2c(=O)n(C)c(=O)n(C)c21 | inactive: -4.31% | –
67 | Cc1cc(C(=O)N[C@H](c2ccccc2)[C@@]2(C)C[C@@H]2[C@@H](C)C(=O)Nc2ccc3ccccc3c2)no1 | – | inconclusive: 22.4 µM [inhibitor, partial curve, poor fit]
